Data taken from PubChem BioAssay AID2676 (National Center for Advancing Translational Sciences (NCATS), 2010).
Screen size: about 370,000 compounds; about 1,100 (0.3%) were called active. Inconclusive results, whose numbers are uncertain, are shown with a selection of clear calls. Calls follow the shape of the dose curve; as a rule, active = well fitted activation curve with a large enough effect; inconclusive = small, poorly fitted or top-dose-only effect; inactive = flat fitted curve, though single readings scatter. Where the call is inconclusive, the potency comes from a doubtful curve fit.

molecular target: Relaxin receptor 1 (Homo sapiens) (UniProt Q9HBX9); assay: qHTS Assay for Agonists of the Relaxin Receptor RXFP1; settings: HEK293T-RXFP1 cAMP TR-FRET, 30 min; series mostly up to 57.5 µM; also: nearly all actives have a fitted effect of over 60% in size
How it was run: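 cAMP rise read by TR-FRET after 30 min, 37C compound exposure (up to 58 uM) in RXFP1-transfected HEK293 cells with Ro 20174 present. EC50 from Hill-equation fits, with 29 nM porcine relaxin as 100% and buffer as basal.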
Potency is read from the fitted curve at half-maximal effect; tags tell the direction and shape of the fitted curve.

Sequence of UniProt Q9HBX9 (Q9HBX9 whole entry, looked up): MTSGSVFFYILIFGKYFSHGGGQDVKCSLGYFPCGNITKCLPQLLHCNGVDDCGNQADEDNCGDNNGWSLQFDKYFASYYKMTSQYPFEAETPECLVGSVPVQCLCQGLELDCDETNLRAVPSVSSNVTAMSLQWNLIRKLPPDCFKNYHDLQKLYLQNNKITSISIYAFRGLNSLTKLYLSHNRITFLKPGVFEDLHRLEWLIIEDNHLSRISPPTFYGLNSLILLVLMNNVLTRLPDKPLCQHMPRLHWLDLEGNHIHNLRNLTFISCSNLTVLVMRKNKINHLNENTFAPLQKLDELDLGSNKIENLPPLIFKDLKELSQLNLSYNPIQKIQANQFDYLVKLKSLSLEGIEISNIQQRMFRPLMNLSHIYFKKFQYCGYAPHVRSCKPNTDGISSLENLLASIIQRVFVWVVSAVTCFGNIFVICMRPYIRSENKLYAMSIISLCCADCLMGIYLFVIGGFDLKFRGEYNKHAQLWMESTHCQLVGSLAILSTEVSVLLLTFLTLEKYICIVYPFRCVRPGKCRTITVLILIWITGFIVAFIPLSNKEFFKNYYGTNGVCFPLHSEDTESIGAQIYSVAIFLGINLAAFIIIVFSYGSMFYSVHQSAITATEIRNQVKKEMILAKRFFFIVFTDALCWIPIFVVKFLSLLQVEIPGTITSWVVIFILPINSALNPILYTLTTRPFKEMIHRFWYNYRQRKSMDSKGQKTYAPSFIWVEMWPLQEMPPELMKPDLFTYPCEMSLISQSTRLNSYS

Potency, active:
CCOc1ccc(CCNC(=O)CSc2nc3ccccc3nc2Cc2ccc(C)cc2)cc1OCC 14.1 µM, CCOc1ccc(Nc2nc(N)c(C(=O)c3ccccc3Cl)s2)cc1 25.1 µM, Cn1c(=O)c2sccc2n2c(CCCC(=O)N3CCCCC3)nnc12 17.8 µM, COc1cccc2cc(C(=O)C3=C(O)C(=O)N(Cc4ccco4)C3c3cccnc3)oc12 (stereo unspecified) 25.1 µM

Potency, inactive:
COc1ccc(S(=O)(=O)N2CCCCC2)cc1C(=O)N1CCCC1, O=C(N/N=C/C(Cl)=C/c1ccccc1)c1ccccc1F, Cc1cc(-c2ccc(C)c(S(=O)(=O)Nc3cccc(C)n3)c2)on1, O=C(CN(Cc1ccccc1Cl)C(=O)CCC(=O)Nc1nccs1)NCC1CCCO1 (stereo unspecified), COc1ccccc1CNC(=O)c1oc2c(c1C)-c1nn(Cc3ccc(Cl)cc3)cc1CC2, COc1ccc(-c2noc(CN(C)Cc3ccccc3)n2)c(OC)c1OC, O=C(c1ccc(S(=O)(=O)Nc2ccccc2)cc1)N1CCCC1, COc1ccc(/C=C(\NC(=O)c2ccc([N+](=O)[O-])cc2)C(=O)NCCN2CCOCC2)cc1, O=C1/C(=C/c2ccc(N3CCCC3)cc2)NC(=S)N1C1CC1, CCC(=O)N(c1ccc(C(=O)O)cc1)c1nc(-c2ccc(OC)cc2)c(C)s1, CCN1/C(=C/c2ccc3cc(C)ccc3[n+]2CC)Sc2ccccc21, c1ccc(Cn2c(CNc3nc4ccccc4n3CCN3CCOCC3)nc3ccccc32)cc1, O=C(COc1ccccc1)Nc1nccs1

Potency, inconclusive:
CCc1nnc(SCC(=O)Nc2ccc(Cl)cc2F)c2cc3occc3n12 17.8 µM [activator, partial curve], Cc1cccc(C)c1NC(=O)CSc1nc2ccccc2c(=O)[nH]1 28.2 µM [activator, single point], Cc1ccccc1CSc1ncc(Cl)c(C(=O)NCc2ccccc2)n1 39.8 µM [activator, single point], CSc1ncc(C(=O)NCc2ccc(F)cc2)c(-c2ccccc2)n1 39.8 µM [activator, single point], CCN(CC)c1ccc(-c2sc(Nc3ccccc3)n[n+]2-c2ccc(F)cc2)cc1 35.5 µM [activator, partial curve], COc1ccc(/C=N/NC(=O)Cn2cnc3c2c(=O)n(C)c(=O)n3C)c(OC)c1OC 3.55 µM [activator, full curve], CC(C)Oc1ccc(CNC(=O)c2cc3cccc4c3n2CC(C)S4)cc1 (stereo unspecified) 25.1 µM [activator, partial curve], CCOC(=O)c1sc2nc(Cc3ccc(Cl)cc3)[nH]c(=S)c2c1C 4.47 µM [activator, full curve], Cc1cc(C)cc(NC(=O)c2cn3c4c(ccc(Cl)c4c2=O)OC(C)C3)c1 (stereo unspecified) 6.31 µM [activator, partial curve], Cc1cccn2c3c(c(=O)nc12)C(c1cccc(F)c1)CC(=O)N3 (stereo unspecified) 28.2 µM [activator, partial curve], COc1cc(-c2nnc(COc3ccc4cc(Br)ccc4c3)o2)cc(OC)c1OC 25.1 µM [activator, partial curve], Fc1ccc(N2CCN(c3nc4ccccc4c4nc(-c5cccnc5)nn34)CC2)cc1 31.6 µM [activator, single point], Cc1ccc(NC(=O)CN(C)S(=O)(=O)c2ccc3c(c2)n(C)c(=O)c(=O)n3C)cc1F 39.8 µM [activator, single point], O=C(COc1ccc(Cl)cc1)NCc1nnc2c3ccccc3c(-c3ccccc3)nn12 31.6 µM [activator, partial curve], O=C(Nc1ccc(OCc2cc(=O)n3c4c(sc3n2)CCCC4)cc1)c1cccc(F)c1 31.6 µM [activator, single point], Cc1ccc2nc(Cn3cc(C(F)(F)F)ccc3=O)cc(=O)n2c1 20 µM [activator, partial curve], O=C(CSc1ncnc2ccccc12)NCCc1ccccc1 17.8 µM [activator, partial curve], O=C(c1cccc([N+](=O)[O-])c1)N1CCCN(C(=O)c2cccc([N+](=O)[O-])c2)CC1 15.8 µM [activator, partial curve], COc1ccc2cc(Br)ccc2c1CC(=O)NC(C)C 25.1 µM [activator, partial curve], CCn1cnc2sc(C(=O)Nc3ccccc3OC)c(C)c2c1=O 39.8 µM [activator, single point], O=C(COC(=O)c1cccnc1SCC(=O)NCc1ccccc1)NCc1ccccc1 31.6 µM [activator, single point], Cc1nnc2c3ccccc3c(Cl)nn12 15.8 µM [activator, partial curve], CCc1nn(CC(=O)NCCCN2CCOCC2)c(=O)c2cc3sccc3n12 17.8 µM [activator, partial curve], Cc1ccc(-c2nn3c(-c4ccc(C)cc4)nnc3c3ccccc23)cc1 39.8 µM [activator, single point], CC(=O)c1sc(NC(=O)COc2ccccc2)nc1C 25.1 µM [activator, single point], COc1ccc(-c2ccc3c(N)c(C(=O)Nc4cccc(C)c4)sc3n2)cc1 14.1 µM [activator, partial curve], CCOC(=O)CNC(=O)Cn1cnc2c(nnn2-c2cccc(OC)c2)c1=O 25.1 µM [activator, partial curve], CC(C)CC(=O)Nc1ccc(Cl)c(-c2nc3ccccc3[nH]2)c1 39.8 µM [activator, single point], O=C(Nc1ccccc1C(=O)Nc1ccccc1)c1ccccc1F 39.8 µM [activator, single point], CCOc1ccc(NC(=O)Cn2cc(S(=O)(=O)c3ccc(C)cc3)c(=O)c3cc(F)ccc32)cc1 39.8 µM [activator, single point], O=c1c2ccccc2nc2sc(Nc3cccc(Cl)c3)nn12 39.8 µM [activator, single point], O=c1c2sccc2nc(SCc2cc(=O)n3ccccc3n2)n1Cc1ccccn1 28.2 µM [activator, single point], CCOc1ccc(NC(=O)c2sc3nc(N4CCOCC4)c4c(c3c2N)CCCC4)cc1 31.6 µM [activator, single point], COc1ccc(CCn2c(=O)c3ccccc3n(CC(=O)Nc3cccc(C)c3)c2=O)cc1OC 35.5 µM [activator, single point], CCOc1ncccc1C(=O)Nc1ccc(S(=O)(=O)Nc2nccs2)cc1 25.1 µM [activator, partial curve], CCn1c(SCC(=O)Nc2ccccc2)nc2c([nH]c3ccccc32)c1=O 35.5 µM [activator, single point], CCOC(=O)CCc1c(C)c2ccc3c(c2oc1=O)CN(CCCO)CO3 20 µM [activator, partial curve], O=C(CCSc1nnc2ccc3ccccc3n12)Nc1ccc(F)cc1 28.2 µM [activator, partial curve], CN(C1CCCCC1)S(=O)(=O)c1ccc2c(c1)c(=O)c(C(=O)NCc1ccc(F)cc1)cn2C 31.6 µM [activator, single point], Fc1ccc(-n2c(-c3ccc4ccccc4n3)n[nH]c2=S)cc1Cl 17.8 µM [activator, partial curve], Cc1ccc(NC(=O)C2CCC(CNS(=O)(=O)c3cccc4nsnc34)CC2)c(Cl)c1 (stereo unspecified) 39.8 µM [activator, single point], Cn1c(=O)c2c(nc(SCC(=O)c3cccs3)n2Cc2ccc(F)cc2)n(C)c1=O 35.5 µM [activator, single point], CCc1ccccc1NC(=O)C(C)n1c(=O)cc(C)c2c(C)nn(-c3ccccc3)c21 (stereo unspecified) 35.5 µM [activator, single point], O=C(C1=C(O)C(=O)N(Cc2ccco2)C1c1ccccc1F)c1cccs1 (stereo unspecified) 28.2 µM [activator, partial curve], COCCCN1C(=O)C(=O)/C(=C(/O)c2ccc(OC)cc2)C12C(=O)N(C)c1ccccc12 (stereo unspecified) 22.4 µM [activator, partial curve], CCOc1ccc(NC(=O)CCCc2nnc3n(C)c(=O)c4sccc4n23)cc1 7.94 µM [activator, partial curve], O=C(Nc1ccc(C(=O)OCc2cc(=O)n3nc(C4CC4)sc3n2)cc1)c1cccc(F)c1 31.6 µM [activator, single point], CCOc1ccc(-c2oc3ccc(C)cc3c(=O)c2O)cc1 25.1 µM [activator, partial curve], Cn1c(=O)c2c(nc(SCc3ccc(C(=O)O)cc3)n2C)n(C)c1=O 31.6 µM [activator, partial curve]
